# In the supplement of paper PMC10126150:
# Values marked as one replicate rest on one cluster of the flow cell; about a third of the high ones do not repeat.
# System: ATP
# Test: switch fluorescence ratio, 500 uM ATP over buffer (Cy3 cluster intensity, sum of 5 cycles each) (fold (ratio)); higher = stronger signal-on switching upon ATP binding; sequences stand for … in TCGTCGGCAGCGTCAGATGTGTATAAGAGACAGTTTTTTTTTTTTTTTTTTTTTTTTT…TC
# Conditions: aptamer strand: ATP DNA aptamer (quencher-CACCTGGGGGAGTATTGCGGAGGAAGG + anchor), 100 nM annealed; ATP concentration: 500 uM; one replicate
# Summary of the method: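 Imaging in selection buffer was followed by imaging after 15 min with 500 uM ATP at 22 °C, for Cy3-labelled switching-strand clusters annealed to 100 nM quencher-labelled ATP aptamer on a modified Illumina MiSeq flow-cell. Five of these buffer/ATP cycles ran, separated by NaOH stripping and re-annealing. The fluorescence ratio per cluster is summed target-cycle over summed buffer-cycle Cy3 intensity, averaged per switch-domain sequence; clusters outside 100-1000 RFU were removed.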
# 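Further: ATP exposure 15 min at 22 °C before imaging.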
row,Sequence,switch fluorescence ratio
1,TGCCGGTGGG,1.01
2,TGCCTAAA,0.971
3,TGCCTAACGC,1.03
4,TGCCTATTGG,0.96
5,TGCCTCACGG,1.04
6,TGCCTGCTTT,0.958
7,TGCCTGGAGG,1.01
8,TGCCTGTTAC,1.06
9,TGCCTTACAC,1.14
10,TGCCTTGGCC,0.993
11,TGCCTTGGTG,1.33
12,TGCGAAAACG,1.01
13,TGCGAACCG,0.983
14,TGCGAGAGGC,0.986
15,TGCGAGG,1.05
16,TGCGAGTCAA,1.08
17,TGCGATAGCG,0.956
18,TGCGATCATG,1.04
19,TGCGATCGAC,1.19
20,TGCGATGTAC,1.4
21,TGCGCAGGGC,1.33
22,TGCGCCCATG,1.04
23,TGCGCGGTGT,1
24,TGCGCTAGCC,1.02
25,TGCGGATCGA,1.05
26,TGCGGCCTAG,1.02

row,Sequence,switch fluorescence ratio
1,TGCGGCTGAG,0.943
2,TGCGGTGCCT,0.962
3,TGCGGTTTCG,0.97
4,TGCGTACGGC,1.03
5,TGCGTACTG,1.02
6,TGCGTCAGCT,0.93
7,TGCGTGCGAA,1.01
8,TGCGTTCGTA,1
9,TGCGTTGAGT,1.02
10,TGCGTTTCCC,1.29
11,TGCTAAACAT,1.05
12,TGCTAACATC,1.05
13,TGCTACCAGC,1.03
14,TGCTAGATTG,1.02
15,TGCTATGGTC,1.02
16,TGCTCATTGA,0.983
17,TGCTCCTTT,0.997
18,TGCTCTTCCG,1.16
19,TGCTCTTGGG,1
20,TGCTGATATT,0.989
21,TGCTGCAATT,1.13
22,TGCTGGACGG,1.03
23,TGCTGGTCGA,1
24,TGCTGTGATT,0.954
25,TGCTGTGCTG,0.955
26,TGCTTAACTA,0.991

row,Sequence,switch fluorescence ratio
1,TGCTTAATAG,0.982
2,TGCTTAATTA,0.929
3,TGCTTCAACC,0.94
4,TGCTTCTATC,1.03
5,TGCTTCTCAA,1.09
6,TGCTTCTGCG,1.01
7,TGCTTGGG,1.01
8,TGCTTGTTGG,0.977
9,TGCTTTATAG,1.02
10,TGCTTTCTGG,0.969
11,TGCTTTGGGT,1.02
12,TGCTTTTATA,0.991
13,TGGAAAAAT,1.02
14,TGGAACCACA,1.05
15,TGGAACTTGG,1.02
16,TGGAAGATGC,1.02
17,TGGAAGGACG,1.02
18,TGGAAGGTGA,1.02
19,TGGAATTGGG,0.945
20,TGGACAATTA,1.05
21,TGGACTGTCC,1.02
22,TGGACTTTG,1.01
23,TGGAGGATTT,1
24,TGGAGGGGTG,0.996
25,TGGAGGGTAA,0.985
